MIC of multidrug-resistant clinical P. aeruginosa isolates by reference broth microdilution, Sensititre or Phoenix panel; µg/mL of the β-lactam, with the inhibitor fixed at 4 µg/mL where named; higher = less susceptible; each panel covers only a few steps. No active / inactive call per row; the paper applies CLSI M100 breakpoints. The methods often differ by one or more steps on the same isolate. Several isolates can come from one patient. PDC is the chromosomal AmpC β-lactamase of the species; the number names its allele. Isolates are numbered anew.
Columns and labels:
Experiment in all cases: Reference broth microdilution (once per isolate) and two commercial panels; inhibitor fixed at 4 µg/mL.
ceftazidime = compound: CC(C)(O/N=C(\C(=O)N[C@@H]1C(=O)N2C(C(=O)[O-])=C(C[n+]3ccccc3)CS[C@H]12)c1csc(N)n1)C(=O)O [ceftazidime] (with: avibactam 4 µg/mL)
imipenem = compound: C[C@@H](O)[C@H]1C(=O)N2C(C(=O)O)=C(SCCNC=N)C[C@H]12 [imipenem]; details: reference broth microdilution
ceftolozane = compound: Cn1c(N)c(NC(=O)NCCN)c[n+]1CC1=C(C(=O)[O-])N2C(=O)[C@@H](NC(=O)/C(=N\OC(C)(C)C(=O)O)c3nsc(N)n3)[C@H]2SC1 [ceftolozane] (with: tazobactam 4 µg/mL)

Test System | MIC (ceftazidime; BD Phoenix panel) [µg/mL] | MIC (ceftazidime; Sensititre panel) [µg/mL] | MIC (ceftazidime; reference broth microdilution) [µg/mL] | MIC (imipenem) [µg/mL] | MIC (ceftolozane; BD Phoenix panel) [µg/mL] | MIC (ceftolozane; Sensititre panel) [µg/mL] | MIC (ceftolozane; reference broth microdilution) [µg/mL]
Pseudomonas aeruginosa isolate 5 (PDC allele: blaPDC-8) | 8 | 16 | ≥ 32 | > 8 | ≤ 1 | 4 | 8
Pseudomonas aeruginosa isolate 169 (PDC allele: blaPDC-6) | 2 | – | 8 | 4 | ≤ 1 | – | 4
Pseudomonas aeruginosa isolate 185 (ESBL gene: blaVEB-14, PDC allele: blaPDC-11, carbapenemase gene: blaVIM-5) | > 8 | > 16 | ≥ 32 | > 8 | > 8 | > 8 | ≥ 16
Pseudomonas aeruginosa isolate 107 (PDC allele: blaPDC-16) | 4 | 8 | 8 | > 8 | ≤ 1 | 2 | 2
Pseudomonas aeruginosa isolate 135 (PDC allele: blaPDC-3) | 8 | – | 16 | 4 | 2 | – | 8
Pseudomonas aeruginosa isolate 118 (PDC allele: blaPDC-1) | 2 | 8 | 8 | > 8 | ≤ 1 | 4 | 2
Pseudomonas aeruginosa isolate 174 (PDC allele: blaPDC-8) | 8 | ≤ 4 | ≤ 4 | > 8 | 2 | 4 | 4
Pseudomonas aeruginosa isolate 9 (PDC allele: blaPDC-8) | 2 | – | ≤ 4 | 8 | ≤ 1 | – | 2
Pseudomonas aeruginosa isolate 24 (PDC allele: blaPDC-15) | 8 | – | 16 | ≤ 1 | ≤ 1 | – | 4
Pseudomonas aeruginosa isolate 112 (PDC allele: blaPDC-71) | 4 | – | ≥ 32 | > 8 | 2 | – | 8
Pseudomonas aeruginosa isolate 159 (PDC allele: blaPDC-5) | 4 | 8 | ≤ 4 | ≤ 1 | 2 | 4 | 4
Pseudomonas aeruginosa isolate 62 (PDC allele: blaPDC-3) | 8 | 16 | 8 | > 8 | ≤ 1 | 2 | ≤ 1
Pseudomonas aeruginosa isolate 137 (PDC allele: blaPDC-10) | > 8 | – | ≥ 32 | > 8 | 4 | – | 8
Pseudomonas aeruginosa isolate 100 (PDC allele: blaPDC-1) | 8 | – | 16 | 8 | ≤ 1 | – | 2
Pseudomonas aeruginosa isolate 101 (PDC allele: blaPDC-15) | 8 | – | 16 | 2 | ≤ 1 | – | 2
Pseudomonas aeruginosa isolate 60 (ESBL gene: blaPAC-1, PDC allele: blaPDC-36) | > 8 | – | ≥ 32 | > 8 | > 8 | – | ≥ 16
Pseudomonas aeruginosa isolate 168 (PDC allele: blaPDC-364) | 8 | – | 16 | 1 | ≤ 1 | – | 2
Pseudomonas aeruginosa isolate 111 (PDC allele: blaPDC-3) | 8 | – | ≤ 4 | ≤ 1 | ≤ 1 | – | ≤ 1
Pseudomonas aeruginosa isolate 11 (PDC allele: blaPDC-31) | 8 | – | 16 | 2 | ≤ 1 | – | 8
Pseudomonas aeruginosa isolate 55 (PDC allele: blaPDC-8) | 8 | > 16 | 16 | > 8 | 4 | 4 | 4

Test System | MIC (ceftazidime; BD Phoenix panel) [µg/mL] | MIC (ceftazidime; Sensititre panel) [µg/mL] | MIC (ceftazidime; reference broth microdilution) [µg/mL] | MIC (imipenem) [µg/mL] | MIC (ceftolozane; BD Phoenix panel) [µg/mL] | MIC (ceftolozane; Sensititre panel) [µg/mL] | MIC (ceftolozane; reference broth microdilution) [µg/mL]
Pseudomonas aeruginosa isolate 98 (PDC allele: blaPDC-1) | 8 | – | 16 | > 8 | 2 | – | 4
Pseudomonas aeruginosa isolate 126 (PDC allele: blaPDC-46) | 4 | – | ≤ 4 | ≤ 1 | ≤ 1 | – | 2
Pseudomonas aeruginosa isolate 80 (PDC allele: blaPDC-5) | > 8 | – | 16 | 4 | ≤ 1 | – | ≤ 1
Pseudomonas aeruginosa isolate 18 (PDC allele: blaPDC-24) | 8 | ≤ 4 | ≤ 4 | > 8 | 4 | ≤ 1 | 2
Pseudomonas aeruginosa isolate 104 (PDC allele: blaPDC-34) | 2 | – | ≤ 4 | ≤ 1 | ≤ 1 | – | ≤ 1
Pseudomonas aeruginosa isolate 17 (ESBL gene: blaGES-1, PDC allele: blaPDC-35) | 8 | – | ≤ 4 | ≤ 1 | > 8 | – | ≥ 16
Pseudomonas aeruginosa isolate 72 (PDC allele: blaPDC-1) | 4 | – | ≤ 4 | 2 | ≤ 1 | – | ≤ 1
Pseudomonas aeruginosa isolate 35 (PDC allele: blaPDC-24) | 4 | – | 8 | > 8 | 2 | – | 4
Pseudomonas aeruginosa isolate 42 (PDC allele: blaPDC-8) | 2 | – | ≤ 4 | ≤ 1 | ≤ 1 | – | ≤ 1
Pseudomonas aeruginosa isolate 145 (PDC allele: blaPDC-31) | 8 | – | 16 | ≤ 1 | ≤ 1 | – | 2
Pseudomonas aeruginosa isolate 67 (PDC allele: blaPDC-41) | 8 | 8 | ≤ 4 | 8 | 2 | ≤ 1 | ≤ 1
Pseudomonas aeruginosa isolate 133 (PDC allele: blaPDC-5) | 4 | 8 | ≤ 4 | 2 | 2 | 4 | 2
Pseudomonas aeruginosa isolate 177 (PDC allele: blaPDC-35) | > 8 | – | 8 | 8 | 4 | – | 4
Pseudomonas aeruginosa isolate 115 (PDC allele: blaPDC-121) | 8 | 8 | 8 | > 8 | ≤ 1 | 2 | 2
Pseudomonas aeruginosa isolate 105 (PDC allele: blaPDC-172) | 4 | – | ≤ 4 | > 8 | ≤ 1 | – | ≤ 1
Pseudomonas aeruginosa isolate 103 (PDC allele: blaPDC-1) | 8 | – | ≤ 4 | ≤ 1 | 2 | – | ≤ 1
Pseudomonas aeruginosa isolate 10 (PDC allele: blaPDC-34) | 4 | – | ≤ 4 | 8 | 2 | – | 2
Pseudomonas aeruginosa isolate 164 (PDC allele: blaPDC-24) | 4 | – | 8 | 8 | 4 | – | 8
Pseudomonas aeruginosa isolate 32 (PDC allele: blaPDC-3) | 4 | 8 | ≤ 4 | 8 | 2 | 4 | 2
Pseudomonas aeruginosa isolate 82 (PDC allele: blaPDC-71) | 2 | – | ≤ 4 | > 8 | 2 | – | ≤ 1

Test System | MIC (ceftazidime; BD Phoenix panel) [µg/mL] | MIC (ceftazidime; Sensititre panel) [µg/mL] | MIC (ceftazidime; reference broth microdilution) [µg/mL] | MIC (imipenem) [µg/mL] | MIC (ceftolozane; BD Phoenix panel) [µg/mL] | MIC (ceftolozane; Sensititre panel) [µg/mL] | MIC (ceftolozane; reference broth microdilution) [µg/mL]
Pseudomonas aeruginosa isolate 22 (ESBL gene: blaRSC1, PDC allele: blaPDC-3) | > 8 | – | 8 | > 8 | ≤ 1 | – | ≤ 1
Pseudomonas aeruginosa isolate 97 (PDC allele: blaPDC-12) | 8 | > 16 | 16 | > 8 | 2 | 4 | 4
Pseudomonas aeruginosa isolate 165 (PDC allele: blaPDC-15) | 4 | – | 8 | 4 | ≤ 1 | – | 2
Pseudomonas aeruginosa isolate 77 (PDC allele: blaPDC-109) | 8 | ≤ 4 | ≤ 4 | ≤ 1 | 2 | 4 | 2
Pseudomonas aeruginosa isolate 93 (PDC allele: blaPDC-30) | 4 | ≤ 4 | ≤ 4 | 8 | 4 | ≤ 1 | 2
Pseudomonas aeruginosa isolate 26 (PDC allele: blaPDC-30) | 2 | ≤ 4 | ≤ 4 | ≤ 1 | 2 | 4 | 4
Pseudomonas aeruginosa isolate 57 (PDC allele: blaPDC-162) | 2 | – | ≤ 4 | ≤ 1 | ≤ 1 | – | 2
Pseudomonas aeruginosa isolate 91 (PDC allele: blaPDC-3) | 8 | – | 8 | > 8 | 2 | – | 4
Pseudomonas aeruginosa isolate 4 (PDC allele: blaPDC-12) | > 8 | – | 16 | 2 | 2 | – | 4
Pseudomonas aeruginosa isolate 141 (PDC allele: blaPDC-34) | 4 | – | ≤ 4 | 2 | 2 | – | 2
Pseudomonas aeruginosa isolate 153 (PDC allele: blaPDC-24) | 4 | 8 | 8 | ≤ 1 | 4 | 8 | 4
Pseudomonas aeruginosa isolate 88 (PDC allele: blaPDC-5) | 2 | – | ≤ 4 | 4 | 2 | – | 4
Pseudomonas aeruginosa isolate 51 (PDC allele: blaPDC) | > 8 | 16 | 16 | > 8 | 2 | ≤ 1 | 2
Pseudomonas aeruginosa isolate 74 (PDC allele: blaPDC-34) | 2 | – | ≤ 4 | 4 | 2 | – | 2
Pseudomonas aeruginosa isolate 175 (PDC allele: blaPDC-31) | 4 | – | 16 | 8 | 2 | – | 8
Pseudomonas aeruginosa isolate 116 (PDC allele: blaPDC-24) | 8 | 8 | 8 | > 8 | 4 | 8 | 8
Pseudomonas aeruginosa isolate 56 (PDC allele: blaPDC-34) | 1 | – | ≤ 4 | 8 | 2 | – | 2
Pseudomonas aeruginosa isolate 139 (PDC allele: blaPDC-402) | 8 | – | 16 | ≤ 1 | ≤ 1 | – | 2
Pseudomonas aeruginosa isolate 52 (PDC allele: blaPDC-3) | 4 | ≤ 4 | ≤ 4 | 2 | ≤ 1 | 8 | 2

— the supplement of paper PMC13016719
